Data published in PubChem BioAssay AID1466 (National Center for Advancing Translational Sciences (NCATS), 2008).
Hit rate of the full screen: of about 200,000 compounds, about 10 (0.005%) were called active. The shares of active, inactive and inconclusive entries below differ from those in the screen. The call rests on the fitted dose curve; in most records, active means well fitted inhibition curve with a large enough effect; inconclusive means small, poorly fitted or top-dose-only effect, or effect the other way, or another doubt; inactive means no such curve, though single readings can be large or run the other way. No potency is given beside an inconclusive call; the fits are too rough.

What follows are compounds tested against Lysosomal alpha-glucosidase (Homo sapiens) (UniProt P10253) (assay: qHTS Assay for Inhibitors of Human alpha-Glucosidase as a Potential Chaperone Treatment of Pompe Disease). Conditions: purified human GAA, 4-MU-alpha-glucoside fluorescence; activity change, negative = inhibition: at 76.9 µM (top of the series) unless noted.
Procedure, shortened: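 Endpoint fluorogenic read: 20 min room-temperature reaction of 4 nM human alpha-glucosidase with 400 uM 4-methylumbelliferyl-alpha-D-pyranoside, pH 5.0, quenched with 1M NaOH/1M glycine pH 10. AC50 from Hill modeling.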
Potency means the concentration at half of the fitted maximal effect; tags describe the fitted curve by direction and shape.
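Wherever activity change, negative = inhibition is given: plate controls were uninhibited enzyme wells for no effect and no-enzyme background for full effect.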

| SMILES | Potency | activity change, negative = inhibition |
| --- | --- | --- |
| COc1ccc(CSC(=N)N)cc1[N+](=O)[O-] | inconclusive [inhibitor, partial curve] | – |
| COc1ccc(Cc2nc(C(=O)Nc3ccc(OC)cc3)cs2)cc1 | inconclusive [inhibitor, full curve, poor fit] | – |
| Cc1ccc(Nc2nc3c(c(=O)[nH]2)CCCC3)cc1 | – | inconclusive: -15.5% [inhibitor] |
| Cc1cc[n+](CC(=O)c2ccccc2)c2ccccc12 | – | inconclusive: 19.2% [activator] |
| CCCN(CCC)C(=O)C[n+]1cccc(/C=N/O)c1 | inconclusive [inhibitor, single point] | – |
| COc1cc(/C=N/Nc2ncc(C(F)(F)F)cc2Cl)cc(OC)c1O | inconclusive [inhibitor, single point] | – |
| CSc1ccc(CN2CCC(C(=O)NCc3ccc(C)cc3)CC2)cc1 | – | inconclusive: 21.7% [activator] |
| COc1ccccc1NS(=O)(=O)c1cc([N+](=O)[O-])ccc1N/N=C/c1sc(N2CCOCC2)nc1-c1ccccc1 | inconclusive [inhibitor, single point] | – |
| COc1ccc2[nH]c(=O)c(C(c3nnnn3C3CCCC3)N3CCN(Cc4ccc5c(c4)OCO5)CC3)cc2c1 (stereo not given) | inconclusive [activator, single point] | – |
| O=C(NCc1ccc(Cl)cc1)c1ncn[nH]1 | – | inconclusive: 11.8% [activator] |
| Cc1ccc(Nc2c3c(nc4ncnn24)CC(C)CC3)cc1 (stereo not given) | – | inconclusive: -20.2% [inhibitor] |
| COc1ccc(-c2ccnc(SCC(=O)Nc3ccccn3)n2)cc1 | inconclusive [inhibitor, single point] | – |
| CCn1c2ccccc2c2cc(NC(=O)C(=O)N3CCOCC3)ccc21 | – | inconclusive: 21.4% [activator] |
| C=CCn1c(SCC(=O)OCC)nc(C(F)(F)F)cc1=O | – | inconclusive: 1.83% [activator] |
| COC(=O)c1ccc(-n2c(C)cc(C(=O)COC(=O)CNS(=O)(=O)c3ccc(C)cc3)c2C)cc1 | inconclusive [inhibitor, full curve] | – |
| Cc1sc2nc(NCCO)[nH]c(=O)c2c1C | inconclusive [inhibitor, single point] | – |
| O=C(COC(=O)COc1ccccc1[N+](=O)[O-])Nc1cccc(Br)c1 | inconclusive [inhibitor, single point] | – |
| COc1cccc(C(=O)N/N=C2\SCC(=O)N2Cc2ccc3c(c2)OCO3)c1 | – | inconclusive: 18.5% [activator] |
| NS(=O)(=O)c1ccc(CNC(=O)/C=C/c2c(Cl)cccc2Cl)cc1 | inconclusive [inhibitor, single point] | – |
| COc1nc(NCCc2ccc(OC)c(OC)c2)nc(NC(C)(C)CO)n1 | inconclusive [inhibitor, full curve, poor fit] | – |
| O=C(Nc1ccccc1N1CCOCC1)C1CCN(S(=O)(=O)c2cccc(C(F)(F)F)c2)CC1 | inconclusive [inhibitor, partial curve] | – |
| N#Cc1cc2c(ccc3ccccc32)oc1=O | – | inconclusive: 15.2% [activator] |

| SMILES | Potency | activity change, negative = inhibition |
| --- | --- | --- |
| CCCCCCc1cc2cc(-c3nnc(-c4ccccc4OC)o3)c(=O)oc2cc1O | inconclusive [inhibitor, single point] | – |
| Cc1cccc2cc(CN(Cc3cccnc3)C(=S)NCCCN(C)C)c(=O)[nH]c12 | inconclusive [inhibitor, single point] | – |
| COc1ccc(C(=O)C2CCCN(C(=O)c3cccnc3OC)C2)c(C)c1 (stereo not given) | inconclusive [inhibitor, single point] | – |
| CC(C)C[C@H](NC(=O)OC(C)(C)C)c1nnc(SCC(=O)Nc2ccc(Br)cc2)o1 | inconclusive [inhibitor, partial curve, poor fit] | – |
| CCCn1c(-c2ccc(OC)cc2)nc2ccccc21 | inconclusive [inhibitor, single point] | – |
| CN(C)/C=N/c1sc2c(c1C#N)CC(C)(C)NC2(C)C | inconclusive [inhibitor, single point] | – |
| O=C(O)C1CCN(S(=O)(=O)c2ccc(N3CCOCC3)c([N+](=O)[O-])c2)CC1 | inconclusive [inhibitor, single point] | – |
| CCNC(=O)N(C(=O)NCC)n1c(C)nnc1C | inconclusive [inhibitor, partial curve] | – |
| O=C(c1cccs1)N1CCN(S(=O)(=O)c2ccc(F)cc2)CC1 | inconclusive [inhibitor, single point] | – |
| Cc1nnc(SCC(=O)Nc2ccc3c(c2)OCO3)o1 | inconclusive [inhibitor, single point] | – |
| Nc1ccc(-c2ccc(C(=O)O)s2)cn1 | inconclusive [activator, partial curve] | – |
| CN1CCN(c2ccc([N+](=O)[O-])cc2C(=O)c2ccccc2)CC1 | inconclusive [inhibitor, single point] | – |
| COc1ccc(S(=O)(=O)N2CCN(CC(=O)Nc3cc(OC)cc(OC)c3)CC2)cc1 | inconclusive [inhibitor, partial curve] | – |
| N=c1c2c(-c3ccccc3)c(-c3ccccc3)n(Cc3ccccc3)c2ncn1CCO | inconclusive [inhibitor, partial curve] | – |
| CCOC(=O)c1c(-c2cccs2)csc1NC(=O)COC(=O)c1c(C)noc1C | – | inactive: -7.78% |
| COc1cc(NC(=O)COc2ccccc2[N+](=O)[O-])ccc1NC(=O)c1cccs1 | inconclusive [activator, full curve, poor fit] | – |
| Cc1cc([N+](=O)[O-])nn1CC(=O)Nc1cnc2ccccc2c1 | – | inactive: -10.9% |
| Cn1c(SCC(=O)N/N=C/C=C\c2ccco2)nc2ccccc21 | – | inactive: -16.9% |
| O=C(NCc1ccco1)c1ccc(COc2cccc3ccccc23)cc1 | inconclusive [inhibitor, partial curve] | – |
| O=C(CSCC(=O)OCn1nnc2ccccc2c1=O)Nc1ccc(Cl)cc1 | inconclusive [inhibitor, single point] | – |
| c1ccc(-n2c(-c3cccs3)nc3nc4ccccc4nc32)cc1 | inconclusive [activator, full curve] | – |
| CCn1c(CNC(=O)c2ccccc2F)nnc1SCc1nc2ccccc2c(=O)[nH]1 | inconclusive [activator, full curve, poor fit] | – |

| SMILES | Potency | activity change, negative = inhibition |
| --- | --- | --- |
| Cn1c(=O)c(Nc2ccc(O)cc2)c2c3c(cccc31)C(=O)c1ccccc1-2 | inconclusive [inhibitor, partial curve, poor fit] | – |
| CC1(C)CC(=O)c2sc(NC(=O)CCS(=O)(=O)c3ccccc3)nc2C1 | – | inactive: -21% |
| CC(=O)Nc1ccc(S(=O)(=O)NCC(=O)OCc2cc(=O)oc3ccc4ccccc4c23)cc1 | inconclusive [activator, partial curve] | – |
| CN1CCN(NC(=O)c2cccc3ccccc23)CC1 | inconclusive [inhibitor, partial curve] | – |
| COCCNC(=S)N/N=C/c1ccc(N2CCOCC2)cc1 | – | inactive: 4.77% |
| Nc1nonc1C(=O)OCC(=O)N1CCOCC1 | – | inconclusive: -19.9% [inhibitor] |
| O=S(=O)(c1ccccc1)N1CCC(N2CCCCCC2)CC1 | inconclusive [inhibitor, single point] | – |
| Cc1cc(=O)oc2cc(OCC3CC(c4ccc(Cl)cc4)=NO3)ccc12 (stereo not given) | – | inconclusive: -16.4% [inhibitor] |
| O=C(Nc1ccccc1C(F)(F)F)c1cc2ncc(CCCl)cn2n1 | inconclusive [inhibitor, single point] | – |
| CCC1(C)Cc2c(C#N)c(N)n(-c3ccccc3)c(=S)c2CO1 (stereo not given) | – | inconclusive: 23.1% [activator] |
| CCOC(=O)c1c(-n2c(C)cc(C=O)c2C)sc2c1CCCC2 | inconclusive [inhibitor, single point] | – |
| CC(=O)c1ccc(NC(=O)c2ccc3nc(-c4ccco4)c(-c4ccco4)nc3c2)cc1 | – | inactive: -2.65% |
| CNC(=O)CSc1nnc(-c2ccc(S(=O)(=O)N3CCCC3)cc2)n1-c1cccc(C)c1C | inconclusive [inhibitor, full curve, poor fit] | – |
| O=C1CC(Nc2ccc(N3CCOCC3)cc2)C(=O)N1c1cccc(C(F)(F)F)c1 (stereo not given) | – | inactive: -2.46% |
| O=C(CSc1nnc(-c2ccncc2)o1)Oc1ccccc1 | inconclusive [inhibitor, single point] | – |
| COc1ccc(CCn2ccc(O)c(Cc3ccc(Cl)cc3Cl)c2=O)cc1OC | inconclusive [inhibitor, full curve, poor fit] | – |
| CCCn1c(SCC(=O)N2CCN(S(=O)(=O)c3ccc(Cl)cc3)CC2)n[nH]c1=O | inconclusive [inhibitor, partial curve, poor fit] | – |
| COc1ccc(CCNC(=O)CSc2nnc(CNC(=O)c3cccs3)o2)cc1OC | inconclusive [inhibitor, partial curve] | – |
| CC1=C(C(=O)OCc2ccccc2)C(c2ccc(N3CCOCC3)cc2)NC(=O)N1 (stereo not given) | inconclusive [inhibitor, partial curve] | – |
| CCCCC(=O)NC(Nc1sc2c(c1C(N)=O)CCCC2)(C(=O)OCC)C(F)(F)F (stereo not given) | – | inactive: -3.84% |
| O=C1C=C(NCc2ccccc2)c2ccccc2C1=O | – | inactive: 2% |
